Data from PubChem BioAssay AID588855 (National Center for Advancing Translational Sciences (NCATS), 2011).
Screen size: about 410,000 compounds; about 5,000 (1.2%) were called active. The inconclusive results got no clear call from the source; some entries with a clear call stand among them for comparison. The call rests on the fitted dose curve; in most records, active means well fitted inhibition curve with a large enough effect; inconclusive means small, poorly fitted or top-dose-only effect; inactive means no such curve, though single readings can be large or run the other way. Potencies beside an inconclusive call are fits to weak or partial responses and may not hold up.

assay: qHTS for Inhibitors of TGF-b; details: HepG2 CAGA-GFP TGF-b/SMAD3 reporter, GFP fluorescence, 18 h, TGF-beta stimulated, 500 pg/mL final; series mostly up to 46.1 µM; activity, negative = inhibition: at the top concentration; further: nearly all actives have a fitted effect of over 65% in size
Procedure, shortened: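 Per well, imaged GFP fluorescence of HEPG2 CAGA-GFP cells gives the signal; cells get compound, then TGF-beta (500 pg/mL final), 18 h at 37 degrees C; %Activity versus -TGF-beta and +DMSO controls.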
On the % scale 0 is the no-effect control and ±100 the full control effect; potency means the concentration at half of the fitted maximal effect; tags describe the fitted curve by direction and shape.

Structure (SMILES)	Potency	activity, negative = inhibition
Cc1ccc(CN(C(=O)Nc2cccc(Cl)c2)c2ccccn2)cc1	inconclusive: 31.6 µM [inhibitor, partial curve, poor fit]	–
O=C(NC1CCCN(Cc2ccc(Cl)cc2)C1)c1cnc2ccccn2c1=O (configuration not stated)	inconclusive: 20 µM [inhibitor, single point]	–
CCSc1nc2sc3c(c2c(=O)[nH]1)CCCC3	inconclusive: 2.82 µM [inhibitor, partial curve]	–
O=C(Nc1ccc(Cl)cc1)Nc1nnc(-c2ccncc2)s1	inconclusive: 1 µM [inhibitor, partial curve]	–
Cc1[nH]c2ccccc2c1C(=O)CN(C)c1ccccc1	inconclusive: 7.08 µM [inhibitor, partial curve, poor fit]	–
Cc1ccc(C2c3c(oc4ccccc4c3=O)C(=O)N2c2ccc(C)cn2)cc1 (configuration not stated)	–	inactive: 0.905%
O=C(N/N=C\c1cn(-c2ccccc2)nc1-c1ccccc1)c1ccc(Br)o1	inconclusive: 15.8 µM [inhibitor, single point]	–
COc1ccc(CC(=O)OCc2nnc(C3COc4ccccc4O3)o2)cc1OC (configuration not stated)	inconclusive: 5.01 µM [inhibitor, single point]	–
CCOC(=O)c1ccc(NC(=O)C2CCCN(c3ccc(Sc4ccc(C)cc4)nn3)C2)cc1 (configuration not stated)	–	inactive: -8.63%
OCCOCCn1c(C2CCCN2c2nc(-c3ccc(F)cc3)cs2)nc2cc(C(F)(F)F)ccc21 (configuration not stated)	inconclusive: 17.8 µM [inhibitor, single point]	–
COC(=O)c1ccc(-n2nnc(-c3nc(-c4ccc5c(c4)OCO5)no3)c2C)cc1	–	inactive: 3.69%
O=[N+]([O-])c1ccc(S(=O)(=O)c2cccc(C(F)(F)F)c2)nc1	active: 6.31 µM	–
COCCCn1c(SCC(=O)N2CCOCC2)nc2ccccc2c1=O	–	inactive: -3.91%
CCN(CC)C(=O)C1CCN(S(=O)(=O)c2ccc3c(c2)CCCN3C(=O)C2CCC2)CC1	–	inactive: -8.5%
c1ccc(CN2CCN(c3nc4ccccc4c4ccccc34)CC2)cc1	inconclusive: 15.8 µM [inhibitor, partial curve, poor fit]	–
Cc1cc(Br)ccc1NC(=O)CCS(=O)(=O)c1cccc2nsnc12	inconclusive: 25.1 µM [inhibitor, single point]	–
CCOc1ccc(OCCC(=O)N(CC)CC(=O)Nc2c(F)cccc2F)cc1	inconclusive: 0.794 µM [inhibitor, full curve, poor fit]	–
Cc1ccccc1-n1c(SCC(=O)N2CCN(c3ccccc3)CC2)nnc1-c1ccncc1	–	inactive: -1.3%
N/C(=N\OC(=O)CCCN1C(=O)c2ccccc2C1=O)c1ccc(Cl)cc1	inconclusive: 35.5 µM [inhibitor, single point]	–
Fc1cccc(F)c1/C=N/Nc1ccccn1	inconclusive: 3.16 µM [inhibitor, full curve, poor fit]	–
CCOP(=O)(OCC)c1nc(/C=C/c2ccccc2)oc1NCc1ccc(OC)cc1	inconclusive: 35.5 µM [inhibitor, single point]	–
CCC(=O)N1CCc2cc(S(=O)(=O)NCCC(=O)NCc3ccccc3Cl)ccc21	inconclusive: 10 µM [inhibitor, partial curve]	–
CC(=O)N1CCCc2cc(S(=O)(=O)N3CCC(C(=O)NCc4ccc(N(C)C)cc4)CC3)ccc21	inconclusive: 14.1 µM [inhibitor, single point]	–

Structure (SMILES)	Potency	activity, negative = inhibition
Cc1ccc(S(=O)(=O)N(C)C[C@@H]2OCc3cnnn3CCCC(=O)N([C@H](C)CO)C[C@H]2C)cc1	–	inactive: 19.6%
CCOc1cccc(CC(=O)Nc2ccc3nc(N4CCCCC4)cc(C)c3c2)c1OCC	–	inactive: -1.62%
O=C(NCc1ccccc1)c1ccc(NC(=O)c2nsc3ccccc23)cc1	–	inactive: 7.39%
CCC(C)[C@H]1CNCCN1CCc1cc(C(F)(F)F)cc(C(F)(F)F)c1 (some centres not stated)	inconclusive: 35.5 µM [inhibitor, single point]	–
COc1ccc(-c2cccc(C3C4C=CCCC4(C)C(=O)N3Cc3ccccc3)c2)cc1 (configuration not stated)	inconclusive: 35.5 µM [inhibitor, single point]	–
CN(CCOc1ccc(Br)cc1)CC(O)COc1ccc(C#N)cc1 (configuration not stated)	inconclusive: 22.4 µM [inhibitor, single point]	–
C=CCNc1nc(S(=O)Cc2ccc(C)cc2)nc2c1CCCC2 (configuration not stated)	inconclusive: 35.5 µM [inhibitor, single point]	–
COC1CCCCC1NS(=O)(=O)c1ccccc1 (configuration not stated)	inconclusive: 6.31 µM [inhibitor, single point]	–
CC(=O)Nc1cccc(Oc2nc(NC(C)C)nc3cc(-c4ccccc4)sc23)c1	inconclusive: 35.5 µM [inhibitor, single point]	–
CCc1cc(/C(Cc2csc(C)n2)=N/O)c(O)cc1O	inconclusive: 35.5 µM [inhibitor, single point]	–
O=C(Cn1c(=O)oc2cc(S(=O)(=O)N3CCCC3)ccc21)N1CCN(c2ccccc2)CC1	–	inactive: 19.3%
CCOc1cc(-c2noc(CCCC(N)=O)n2)cc(Br)c1OC	–	inactive: 11.7%
CCCn1c(SCC(=O)NCc2ccco2)nc2c1c(=O)n(C)c(=O)n2C	inconclusive: 35.5 µM [inhibitor, single point]	–
O=Cc1ccc2[nH]ccc2c1	–	inactive: -29.5%
CS(=O)(=O)c1ccc2nc(NC(=O)C3CC3)sc2c1	inconclusive: 8.91 µM [inhibitor, partial curve, poor fit]	–
CCOC(=O)NNc1ccc2nonc2c1[N+](=O)[O-]	inconclusive: 25.1 µM [inhibitor, single point]	–
O=C(Nc1cc(S(=O)(=O)N2CCOCC2)ccc1N1CCOCC1)c1cccs1	inconclusive: 6.31 µM [inhibitor, single point]	–
Cc1ccc(NC(=O)Nc2nnc(N3CCCC3)s2)c(C)c1	–	inactive: -2.04%
CC1CCN(C2=C(NS(=O)(=O)c3ccc(Br)cc3)C(=O)c3ccccc3C2=O)CC1	inconclusive: 12.6 µM [inhibitor, partial curve, poor fit]	–
Cc1ccc(CNC(=O)Cc2coc3cc(C)cc(C)c23)cc1	–	inactive: -11.4%
C=CCc1cccc(/C=N/NC(=O)CCC(=O)Nc2ccc(F)cc2)c1O	inconclusive: 10 µM [inhibitor, partial curve, poor fit]	–
CCOC(=O)c1c(NC(C)=O)sc2c(OCC(O)CNC(C)(C)C)c(Br)ccc12 (configuration not stated)	inconclusive: 35.5 µM [inhibitor, single point]	–
O=C(Nc1ccccc1)C1=C[C@@H](c2ccccc2)C[C@@H](OCc2ccc(CO)cc2)O1	–	inactive: -16.3%

Structure (SMILES)	Potency	activity, negative = inhibition
c1ccc(Cn2nnc3c(N4CCCC4)ncnc32)cc1	–	inactive: 5.92%
Cc1cccnc1Nc1nc(-c2ccc(O)c(O)c2)cs1	inconclusive: 35.5 µM [inhibitor, single point]	–
Cc1cc(=O)oc2c3c(ccc12)OC/C3=N/N	inconclusive: 5.01 µM [inhibitor, partial curve, poor fit]	–
COC(=O)[C@H](C(C)C)N(Cc1ccccc1)S(=O)(=O)CCNC1CCCC1	inconclusive: 14.1 µM [inhibitor, single point]	–
CSc1nc2ccccc2n1CC(=O)Nc1cc(C(F)(F)F)ccc1N1CCOCC1	inconclusive: 35.5 µM [inhibitor, single point]	–
Cc1c(C2=CCN(S(=O)(=O)c3ccc(CC(C)C)cc3)CC2)c2ccccc2n1CC(=O)N1CCCC1	inconclusive: 11.2 µM [inhibitor, single point]	–
Cc1cccc(C)c1OCC(O)CNC(C)c1ccccc1 (configuration not stated)	inconclusive: 5.62 µM [inhibitor, single point]	–
Cc1cc(/C=N/n2cnnc2)c(C)n1-c1ccc(OCc2ccc(Cl)cc2)cc1	inconclusive: 35.5 µM [inhibitor, single point]	–
O=C(CSC(=S)N1CCOCC1)Nc1nc(-c2ccccc2)c(-c2ccccc2)o1	–	inactive: -9.87%
COc1c(C(O)CC(C)C)ccc2c1C(=O)OCc1cc(C)cc(O)c1O2 (configuration not stated)	inconclusive: 35.5 µM [inhibitor, single point]	–
Cc1ccc(C(C)C)c(OCC(=O)N2CCC(c3nc4ccccc4o3)CC2)c1	inconclusive: 0.708 µM [inhibitor, partial curve, poor fit]	–
CCOc1ccc(CCNC(=O)Cn2c(-c3nonc3N)nc3ccccc32)cc1OCC	–	inactive: 1.63%
CSCCC(NS(=O)(=O)c1ccc(Cl)cc1)C(=O)OCc1c(Cl)cccc1Cl (configuration not stated)	inconclusive: 25.1 µM [inhibitor, single point]	–
COc1ccccc1N1CCN(C(=O)c2cccc(C(=O)N3CCN(c4ccccc4OC)CC3)c2)CC1	–	inactive: -7.47%
O=C1NC(=O)C2(COC(c3cccc([N+](=O)[O-])c3)OC2)S1 (configuration not stated)	inconclusive: 0.112 µM [inhibitor, full curve, poor fit]	–
CN(Cc1ccccc1)C(=O)c1[nH]cnc1C(=O)Nc1cccc(Cl)c1	inconclusive: 1.12 µM [inhibitor, full curve]	–
S=C(Nc1cccc(Cl)c1)N1CCN(Cc2ccccc2)CC1	inconclusive: 35.5 µM [inhibitor, single point]	–
CC(=O)Nc1cc(-c2ccccc2)cn2c(-c3ccc(F)cc3)cnc12	–	inactive: 23.8%
COc1cccc(/C=N/Nc2ncnc3c2[nH]c2ccc(C)cc23)c1OC	inconclusive: 4.47 µM [inhibitor, full curve, poor fit]	–
Cc1nc2nc(SCC(=O)NCCc3ccccc3)nn2c(C)c1Cc1c(F)cccc1Cl	inconclusive: 1.26 µM [inhibitor, partial curve, poor fit]	–
O=C(CCSc1ccc(Cl)cc1)NC12CC3CC(CC(C3)C1)C2	inconclusive: 31.6 µM [inhibitor, single point]	–
